Results from PubChem BioAssay AID1159614 (National Center for Advancing Translational Sciences (NCATS), 2016).
The whole screen tested about 45,000 compounds, of which about 65 (0.1%) were called active. Calls follow the shape of the dose curve; as a rule, active = well fitted activation curve with a large enough effect; inconclusive = small, poorly fitted or top-dose-only effect; inactive = no such curve, though single readings can be large or run the other way. The list shows a part of the results.

These compounds were tested against Galactocerebrosidase (Homo sapiens) (UniProt P54803) (assay: A Novel Cell-Based Assay to Identify Small Molecules for B -Galactocerebrosidase). Details: 145M-Twi-hGALC-G270D cells (Twitcher mouse brain line with human GALC G270D), HMU-beta-Gal fluorescence, 48 h; series mostly up to 57.5 µM; activation: at the top concentration.
In short: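 Mutant human GALC (G270D), stably expressed in a Twitcher mouse brain cell line lacking endogenous GALC, is measured in live-treated cells via 6-hexadecanoylamino-4-methylumbelliferyl-β-galactoside hydrolysis (0.1 mM final, pH 5.2) with fluorescent detection.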
Also: 0% is about no effect; nearly all actives have a fitted effect of over 65% in size.

UniProt P54803, sequence (P54803 whole entry, looked up): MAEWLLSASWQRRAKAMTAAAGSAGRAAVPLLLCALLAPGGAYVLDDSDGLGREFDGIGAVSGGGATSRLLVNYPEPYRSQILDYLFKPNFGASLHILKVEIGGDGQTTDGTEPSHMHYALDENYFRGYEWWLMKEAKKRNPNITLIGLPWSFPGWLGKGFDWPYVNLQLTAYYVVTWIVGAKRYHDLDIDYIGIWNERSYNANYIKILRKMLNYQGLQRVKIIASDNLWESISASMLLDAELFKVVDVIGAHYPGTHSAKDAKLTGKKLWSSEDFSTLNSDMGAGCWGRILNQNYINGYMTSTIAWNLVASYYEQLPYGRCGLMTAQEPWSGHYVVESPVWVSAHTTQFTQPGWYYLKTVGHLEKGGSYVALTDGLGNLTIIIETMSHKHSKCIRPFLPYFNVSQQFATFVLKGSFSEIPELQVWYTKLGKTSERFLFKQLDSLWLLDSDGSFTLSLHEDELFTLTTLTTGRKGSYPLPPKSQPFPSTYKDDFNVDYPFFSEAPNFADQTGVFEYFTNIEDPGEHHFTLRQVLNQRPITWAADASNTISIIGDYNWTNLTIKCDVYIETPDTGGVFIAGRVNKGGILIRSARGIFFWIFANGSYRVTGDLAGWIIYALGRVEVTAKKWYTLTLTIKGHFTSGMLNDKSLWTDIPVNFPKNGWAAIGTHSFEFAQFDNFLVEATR

SMILES | activation
CC(C)c1nn2c(=O)cc(COC(=O)c3ccc(NC(=O)c4ccccc4Cl)cc3)nc2s1 | inactive: -6.7%
O=C(Nc1ccc(O)c(-c2nc3ccccc3o2)c1)c1cccs1 | inactive: -23.5%
COc1ccc2oc(=O)cc(CN3CCN(C(=O)c4ccccc4)CC3)c2c1 | inactive: -14.8%
CCOc1ccc(NC(=O)c2oc3ccccc3c2NC(=O)Cc2ccc(OC)c(OC)c2)cc1 | inactive: -1.42%
Cc1ccc(C)c(CN2C(=O)c3ccccc3Sc3ccc(C(=O)NCCCOC(C)C)cc32)c1 | inactive: -8.88%
CCOc1ccc(CC(=O)NC2CC(=O)N(c3ccc4c(c3)OCCO4)C2)cc1 (stereo unspecified) | inactive: -23.8%
NC[C@H]1O[C@H](O[C@H]2[C@H](O[C@@H]3O[C@H](CO)[C@@H](O)[C@H]3O)C(O)[C@H](N)C[C@@H]2N)[C@H](N)[C@@H](O)[C@@H]1O (stereo partly specified) | inactive: -12.7% [at 11.5 µM]
CCN(c1ccccc1)S(=O)(=O)c1nnc(NC(=O)COc2ccccc2F)s1 | inactive: -16.9%
CC(=O)Nc1ccccc1-c1nc2ccccc2n(C(C)C(=O)c2ccc(C)c(C)c2)c1=O (stereo unspecified) | inactive: -4.68%
Cc1cc(C)n(-c2nc3cc(Cl)c(Cl)cc3nc2Nc2c(C)cccc2C)n1 | inactive: -9.33%
CC(=O)Nc1ccc(S(=O)(=O)Nc2ccc3c(c2)n(C)c(=O)n3C)c(C)c1 | inactive: -14.8%
COc1ccc(CNC(=O)C(=O)NCC(c2cccnc2)N2CCN(c3ccccc3F)CC2)cc1 (stereo unspecified) | inactive: -17.7%
Cc1ccc(NC(=O)CN(C)S(=O)(=O)c2cccc3nsnc23)c(C)c1 | inactive: -16.4%
COc1ccc(-c2[nH]ncc2C(=O)NCc2ccccc2OC)cc1 | inactive: -10.6%
Cc1ccc(Nc2cc(-c3ccccc3)nc(C)n2)cc1 | inactive: -7.07%
CCOC(=O)c1c(NC(=O)c2cc3ccccc3c(=O)o2)sc2c1CCCC2 | inactive: -1.44%
CCCN(CCC)CCNC(=O)c1cc(Sc2ccc(Cl)cc2)nc2ccccc12 | inactive: -10.2%
COc1ccc(OC)c(NC(=O)CCc2c(C)nc3c(-c4ccccc4)c(C)nn3c2C)c1 | inactive: -33.1%
CCc1cccc(NC(=O)c2ccc3c(=O)n4nc(Nc5ccccc5OC)sc4nc3c2)c1 | inactive: -18.1%
CCSC1=NC2(CCN(C(=O)NC3CCCCC3)CC2)N=C1c1ccc(C)c(C)c1 | inactive: -8.05%
Cc1ccc(NC(=O)[C@H](Cc2ccccc2)N2Cc3ccccc3C2=O)cc1 | inactive: -8.11%
Cc1noc(C)c1S(=O)(=O)NCCc1csc2nc(-c3ccc(F)cc3)nn12 | inactive: -7.69%
Cc1ccc(S(=O)(=O)c2cn(CC(=O)Nc3ccc4c(c3)OCO4)c3ccc(F)cc3c2=O)cc1 | inactive: -9.03%
Cc1cccc(CSCCNC(=O)CN(c2ccccc2)S(=O)(=O)N(C)C)c1 | inactive: -38.8%

SMILES | activation
Cc1cc2n(n1)CCCN2C(=O)Nc1cccc(C)c1C | inactive: -8.03%
Cc1cccc(Nc2nc3ccccc3n3c(N)nnc23)c1 | inactive: -12.1%
COc1cccc(N2CCN(c3ncc4c(n3)CCN(Cc3ccc(Br)cc3)C4)CC2)c1 | inactive: -9.66%
Cc1ccc(Cn2c(=O)c3cccnc3n(Cc3ccc(F)cc3)c2=O)cc1 | inactive: -12.9%
OC1(c2ccccc2)CCNCC1 | inactive: -11.3%
Cc1ccc(C)c(NC(=O)Cn2c(=O)oc3cc(S(=O)(=O)NCc4ccccc4)ccc32)c1 | inactive: -44.6%
Cc1cc2oc(C(=O)Nc3ccc(S(=O)(=O)Nc4onc(C)c4C)cc3)cc(=O)c2cc1C | inactive: -5.99%
COc1ccc(Cl)cc1NC(=O)c1nc(S(C)(=O)=O)ncc1N(Cc1ccc(C)cc1)Cc1ccco1 | inactive: -20%
CCOc1ccc(-n2c(SC(C)C(=O)OC)nc3c([nH]c4ccccc43)c2=O)cc1 (stereo unspecified) | inactive: -6.52%
CCc1ccc2oc(C(=O)Nc3nc(-c4ccccc4)ns3)c(C)c2c1 | inactive: -6.13%
Cc1cccc(CNC(=O)c2ccc(Cn3c(SCc4ccccc4)nc4cccnc43)cc2)c1 | inactive: -17.2%
Cc1c(C(=O)N(C)C)sc2c1c(=O)n(-c1ccc(F)cc1)c(=O)n2CC(=O)N(C)c1ccccc1 | inactive: -2.28%
Cc1ccc(OC(C)C(=O)NCC2(N3CCOCC3)CCCCC2)cc1C (stereo unspecified) | inactive: 14.8%
Cc1ccccc1C(=O)Nc1sc2c(c1C(=O)N1CCC(C)CC1)CCCC2 | inactive: -14.2%
CCN(CCCNC(=O)c1cc2c(=O)[nH]c3ccc(C)cc3c2s1)Cc1ccccc1 | inactive: -7.66%
CCOC(=O)c1c(NC(=O)/C=C/c2ccc(OC)cc2)sc2c1CCC(C)C2 (stereo unspecified) | inactive: 4.13%
O=C(CSc1nc(=O)[nH]c2c1CCCC2)NCc1ccc(Cl)cc1 | inactive: -14.2%
CCN(CC)CCNC(=O)c1ccc(N)cc1 | inactive: -12.3%
COc1cc(C(=O)NCCS(=O)(=O)N2CCN(c3ccccc3)CC2)cc(OC)c1OC | inactive: -8.87%
Cn1cc(S(=O)(=O)c2ccc(Cl)cc2)c(=O)c2cc(F)c(N3CCOCC3)cc21 | inactive: -9.87%
COc1cccc(CNC(=O)CCCn2c(=O)c3cccn3c3cccnc32)c1OC | inactive: 3.15%
CC(C)(C)c1ccc(OCC(=O)NC(Cc2c[nH]c3ccccc23)C(=O)O)cc1 (stereo unspecified) | inactive: -11%
CC(=O)Nc1ccc(NS(=O)(=O)c2cc3c4c(c2)CC(=O)N4CCC3)cc1 | inactive: -12.5%
CCCCn1nc(NC(=O)c2cccc(Cl)c2)c2cc3ccc(C)cc3nc21 | inactive: -18.4%

SMILES | activation
COc1ccccc1/C=C/c1nc(C#N)c(N2CCN(c3ccccc3)CC2)o1 | inactive: -13.4%
COc1ccc(N2CCN(S(=O)(=O)CCNC(=O)c3ccc(OC(C)C)cc3)CC2)cc1 | inactive: -12%
Cc1ccc(Nc2c(-c3ccccc3O)nc3cc(C)ccn23)cc1 | inactive: -19.1%
CN(C(=O)CSc1nc2ccc(NC(=O)COc3ccccc3Cl)cc2s1)c1ccccc1 | inactive: -12%
CCOc1ccc(NC(=O)CN2CCN(CC(=O)Nc3ccc(OC)cc3)CC2)cc1 | inactive: -8.96%
COC(=O)c1c(SCC(=O)Nc2cc(F)ccc2F)[nH]c2ccc(C)cc2c1=O | inactive: -2.01%
O=C(NCCc1ccccc1)c1cc2sccc2n1Cc1ccc(F)cc1 | inactive: -7.92%
Cc1c(-c2ccc(Cl)cc2)c(=O)oc2c(CN3CCOCC3)c(O)ccc12 | inactive: -17.8%
COc1ccc(-c2cc(C(F)(F)F)nc(NCCc3ccccc3)n2)cc1 | inactive: 4.2%
CNC(=O)c1c(NC(=O)c2ccc(S(=O)(=O)N3CCCC(C)C3)cc2)sc2c1CCC2 (stereo unspecified) | inactive: -13.8%
Cc1ccc(NC(=O)CSc2nc3ccc(NC(=O)c4ccco4)cc3s2)c(C)c1 | inactive: -36.3%
CSc1cccc(NC(=O)C(c2ccccc2)N2Cc3ccccc3C2=O)c1 (stereo unspecified) | inactive: -17.1%
COC(=O)c1cccc(CN2C(=O)SC(Nc3ccc(Br)cc3)C2=O)c1 (stereo unspecified) | inactive: -4.27%
CCOC(=O)CN1C(C(=O)c2ccccc2)=C(OC(=O)c2ccccc2)c2ccccc2S1(=O)=O | inactive: -15.1%
Cc1cc(C)cc(NC(=O)Nc2cccs2)c1 | inactive: -5.37%
Cc1ccc(NC(=O)C2CCCN(S(=O)(=O)c3ccc(F)cc3)C2)cc1 (stereo unspecified) | inactive: -24.4%
COC(=O)C1CCN(C(c2ccccc2Cl)c2sc3nc(-c4ccco4)nn3c2O)CC1 (stereo unspecified) | inactive: -5.51%
CCCCOc1ccc(C(=O)Nc2onc3c2CCCC3)cc1 | inactive: -17.5%
Cc1ccc(C)c(NC(=O)Cn2cnc3nc4c(cc3c2=O)CCCC4)c1 | inactive: -7.29%
COc1ccccc1N1CCN(C(=O)C2CCCN(S(=O)(=O)c3ccc4c(c3)oc(=O)n4C)C2)CC1 (stereo unspecified) | inactive: -10.9%
CCOC(=O)c1cccc(NC(=O)c2ccc3snnc3c2)c1 | inactive: -37.8%
COc1ccccc1C(=O)Nc1nc(-c2ccc(Br)cc2)ns1 | inactive: -10.7%
Cc1nc2ccn(Cc3cccnc3)c(=O)c2cc1C(=O)N1CCN(c2ccccc2)CC1 | inactive: -19.6%
COCCNC(=O)CSc1nnc(NC(=O)Nc2ccc(C)cc2)s1 | inactive: -4%

SMILES | activation
CCc1ccc(-n2c(N3CCN(c4cccc(C)c4C)CC3)nc3ccccc3c2=O)cc1 | inactive: -5.96%
COC(=O)c1sccc1S(=O)(=O)N(CC(=O)NCc1ccccc1)c1ccc(C)cc1 | inactive: -8.59%
CC1CC(=O)NN=C1c1ccc(NCC(C)(C)NCC(O)COc2cc(Cl)ccc2C#N)cc1 (stereo unspecified) | inactive: -10.6%
Cc1ccc(Nc2nc(N)nc(N)c2S(=O)(=O)c2ccccc2)cc1 | inactive: -6.2%
O=c1[nH]c2ccc(NCc3ccccc3F)cc2[nH]1 | inactive: -10.8%
CCOc1ccc(CCNC(=O)c2cc3c(=O)n(C)c4ccccc4c3n2C)cc1 | inactive: -3.34%
O=C(CCc1ccccc1)NCc1ccc2c(c1)CCN2C(=O)c1ccc(Cl)cc1 | inactive: -4.65%
CCn1c(CNC(=O)C23CC4CC(CC(C4)C2)C3)nnc1SCC(=O)Nc1ccc(F)cc1 | inactive: 0.574%
CCOC(=O)c1cc(NC(=O)c2ccc(OC)cc2)c(=O)n2c1oc1ccc(Cl)cc12 | inactive: -12.2%
CC1Cc2ccccc2N1C(=O)CSc1nnc(-c2cccc(Cl)c2)o1 (stereo unspecified) | inactive: 1.3%
O=C(NCCS(=O)(=O)N1CCN(c2cccc(Cl)c2)CC1)c1cc(=O)c2ccccc2o1 | inactive: -11%
CCc1cccc(NC(=O)CC2Oc3ccc(C)cc3NC2=O)c1 (stereo unspecified) | inactive: 11.3%
Cc1ccc(NC(=O)CC2Sc3ccccc3NC2=O)c(Br)c1 (stereo unspecified) | inactive: -2.03%
COc1ccc(-n2c(=O)c3c(c4cc(OC)ccc4n3C)n(C)c2=O)cc1 | inactive: 14.1%
CCOc1ccc(NC(=O)Cn2cc(C(=O)c3ccc(CC)cc3)c(=O)c3ccc(C)nc32)cc1 | inactive: 3.83%
CCOC(=O)c1cccc(NC(=O)c2cnc(N3CCCCC3)c3ccccc23)c1 | inactive: -4.35%
CC1=C(c2ccc(C)c(C)c2)S(=O)(=O)N=C1N1CCC(C(=O)NCc2ccc(Cl)cc2)CC1 | inactive: -7.81%
O=C(NCCC1=CCCCC1)c1ccc2c(c1)N(Cc1ccc(Cl)cc1)C(=O)c1ccccc1S2=O (stereo unspecified) | inactive: -4.06%
CCN(CC)S(=O)(=O)c1ccc2c(c1)N(CC(=O)Nc1c(C)cc(C)cc1C)C(=O)C1CCCN21 (stereo unspecified) | inactive: -20.2%
Cc1cc(C)c(/C=C/c2onc(C)c2S(=O)(=O)N2CCC(C(=O)Nc3ccc(Cl)c(C(F)(F)F)c3)CC2)c(C)c1 | inactive: -37.4%
O=C(COc1ccccc1F)Nc1ccc(Cl)c(-c2nc3ccccc3[nH]2)c1 | inactive: -8.86%
COc1ccc(NC(=O)CSc2nccn2Cc2ccco2)cc1OC | inactive: -13.6%
Cc1ccc(-n2c(=O)c3cccnc3n2CC(=O)NCc2ccc(F)cc2)cc1C | inactive: -3.53%
Cc1ccc(CNC(=O)CN2CCCN(Cc3ccc(F)cc3)S2(=O)=O)cc1 | inactive: -12.5%
